Test results: the supplement of paper PMC4604168 (melanoma cell lines)
The list shows a part of the results. Many values rest on one well or one pass, so single values are uncertain.

Columns and labels:
Experiment in all cases: cell count relative to DMSO control; melanoma cells; higher = more viable cells
Conditions in all cases: library dose: low library concentration; 72 h
[1] = tested on: MZ2-MEL
[2] = tested on: MeWo
[3] = tested on: RPMI7951
[4] = tested on: RVH-421
[5] = tested on: SkMel28
[6] = tested on: SkMel2
[7] = tested on: SkMel30
[8] = tested on: SkMel5
[9] = tested on: UACC257
[10] = tested on: UACC62
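Also: cell number obtained by counting DAPI-stained nuclei in high-throughput microscope images with image analysis software, screen run in 1,536-well plates.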

Q: Which results are given for `Nc1ncn([C@H]2C[C@H](O)[C@@H](CO)O2)c(=O)n1` [decitabine] + O=C(Nc1ccccc1)c1cc([N+](=O)[O-])ccc1Cl [GW9662] (first compound 0.1 µM, partner dose 2 µM)?
A: cell count [1]: 93.4%; cell count [2]: 94.5%; cell count [3]: 67.6%; cell count [4]: 84.1%; cell count [5]: 96%; cell count [6]: 109%; cell count [7]: 88.2%; cell count [8]: 109%; cell count [9]: 89.7%; cell count [10]: 65.1%

Q: How did the cell count [1] turn out when `Nc1ccn([C@@H]2O[C@H](CO)[C@@H](O)C2(F)F)c(=O)n1` [gemcitabine] + O=C(O)C(=O)Nc1sc2c(c1C(=O)O)CCNC2 [TCS401] (first compound 0.0004 µM, partner dose 1.66667 µM) was run?
A: 95.3%

Q: What about the cell count [2] of the same molecule?
A: 98.7%

Q: What about the cell count [3] of the same molecule?
A: 95.5%

Q: And the cell count [4]?
A: 18.6%

Q: And the cell count [5]?
A: 107%

Q: What about the cell count [6] of the same molecule?
A: 112%

Q: And the cell count [7]?
A: 86.9%

Q: What about the cell count [8] of the same molecule?
A: 97.6%

Q: And the cell count [9]?
A: 88.8%

Q: And the cell count [10]?
A: 87.7%

Q: For `Nc1ncn([C@H]2C[C@H](O)[C@@H](CO)O2)c(=O)n1` [decitabine] + COc1ccc2c(c1)CCC1C2CCC2(C)C(NCCCCCCN3C(=O)C=CC3=O)CCC12 [U73122] (first compound 0.1 µM, partner dose 0.4 µM), which cell count [1] is on record?
A: 93.8%

Q: And the cell count [2]?
A: 102%

Q: What about the cell count [3] of the same molecule?
A: 91%

Q: And the cell count [4]?
A: 86.8%

Q: And the cell count [5]?
A: 72.6%

Q: What about the cell count [6] of the same molecule?
A: 114%

Q: And the cell count [7]?
A: 123%

Q: What about the cell count [8] of the same molecule?
A: 103%

Q: What about the cell count [9] of the same molecule?
A: 90.8%

Q: And the cell count [10]?
A: 73%

Q: Which cell count [1] does the source give for `CC(=O)O[C@@]12CO[C@@H]1C[C@H](O)[C@@]1(C)C(=O)[C@H](O)C3=C(C)[C@@H](OC(=O)[C@H](O)[C@@H](NC(=O)OC(C)(C)C)c4ccccc4)C[C@@](O)([C@@H](OC(=O)c4ccccc4)[C@H]21)C3(C)C` [Docetaxel] + OCCn1cc(-c2cnc3nnn(Cc4ccc5ncccc5c4)c3n2)cn1 [PF04217903] (first compound 0.0001 µM, partner dose 1 µM) here?
A: 51.7%

Q: What about the cell count [2] of the same molecule?
A: 41.8%

Q: And the cell count [3]?
A: 31.5%

Q: What about the cell count [4] of the same molecule?
A: 70.6%

Q: And the cell count [5]?
A: 27.5%

Q: What about the cell count [6] of the same molecule?
A: 37.3%

Q: What about the cell count [7] of the same molecule?
A: 34.6%

Q: What about the cell count [8] of the same molecule?
A: 72.8%

Q: And the cell count [9]?
A: 41.1%

Q: What about the cell count [10] of the same molecule?
A: 44.2%

Q: For `Nc1ncn([C@H]2C[C@H](O)[C@@H](CO)O2)c(=O)n1` [decitabine] + Cn1cc(/C=C2\C(=O)Nc3cccnc32)c2ccccc21 [GW441756] (first compound 0.1 µM, partner dose 0.4 µM), which cell count [1] is on record?
A: 83.3%

Q: And the cell count [2]?
A: 110%

Q: And the cell count [3]?
A: 70.3%

Q: And the cell count [4]?
A: 72.7%

Q: What about the cell count [5] of the same molecule?
A: 83.7%

Q: What about the cell count [6] of the same molecule?
A: 109%

Q: What about the cell count [7] of the same molecule?
A: 93.7%

Q: And the cell count [8]?
A: 77.9%

Q: And the cell count [9]?
A: 86%

Q: What about the cell count [10] of the same molecule?
A: 61.1%
